The source of these data is US20200347135A1 (published 2020).

Like-named read-outs stand apart in the source and are kept apart here.

Test [1] has as its target T1, human PD-1-His antigen (UniProt Q15116 partial chain). The test is described as follows: SPR. A general note: In SPR one partner is held on a chip, and binding of the other changes the refractive index at the surface.
In test [2] the target is T1, human PD-1-His antigen. The test is described as follows: SPR. The source holds these as a separate data set.
T1 sequence (Q15116 25-170): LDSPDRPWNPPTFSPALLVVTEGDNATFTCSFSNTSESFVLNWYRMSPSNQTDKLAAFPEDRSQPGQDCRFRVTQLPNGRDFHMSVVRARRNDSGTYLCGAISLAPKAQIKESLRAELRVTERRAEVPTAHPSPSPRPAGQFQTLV
Test [3] addresses T2, human PD-1 expressed on cells (UniProt Q15116 25-288). The test is described as follows: FACS binding. Background: Flow cytometry measures light scatter and fluorescence of single cells or particles in a stream.
Test [4] concerns the target T2, human PD-1 expressed on cells. The test is described as follows: FACS binding. This is another data set of the same source.
For test [5] the target is unchanged. The test is described as follows: FACS ligand competition (PD-L1-Fc).
Test [6] has the same target. The experiment in a line: FACS ligand competition (PD-L1 Fc).

T2 sequence (Q15116 25-288): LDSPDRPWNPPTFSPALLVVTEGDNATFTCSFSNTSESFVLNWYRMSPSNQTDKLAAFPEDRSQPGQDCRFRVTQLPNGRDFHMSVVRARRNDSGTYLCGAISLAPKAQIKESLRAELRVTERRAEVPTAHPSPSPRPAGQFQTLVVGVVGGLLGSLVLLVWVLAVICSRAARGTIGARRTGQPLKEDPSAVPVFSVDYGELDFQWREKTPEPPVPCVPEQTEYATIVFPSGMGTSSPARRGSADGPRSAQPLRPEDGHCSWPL

B1: AS15193_HCAb (Fc fusion)
heavy: QIQLVESGGGSAQAGGSLRLSCVVSGNIYNRNFMGWFRQAPGKVREGVAAIYTGTSRTYYADSVKGRFTISQDNAKNTVYLQMNSLKPEDTAMYYCAADLRDGFWDTGVWNTWGQGTQVTVSS[human IgG4 Fc with S228P (EU numbers) skipped]
Consider B1, for which the Kd with human PD-1-His antigen [1] turned out to be 4 nM; with human PD-1-His antigen [2] it was 0.951 nM. Further, the EC50 in test [3] and in test [4] was 1.26 nM throughout. Further, the half-maximal inhibitory concentration (IC50) in test [5] and in test [6] was 0.79 nM in each case.

B2: AS15156_HCAb (Fc fusion)
heavy: QVQLVESGGGSAQAGGSLRLSCAVSGYIYNRNFMGWFRQVPGKVREGVAAIYTGTERTYYADSVKGRFTISQDNAKNTVYLQMNSLKPEDTAMYYCVADLRDGTWDTGVWNTWGQGTQVTVSS[human IgG4 Fc with S228P (EU numbers) skipped]
B2 gave a Kd in the test with human PD-1-His antigen [2] of 2.67 nM. In test [4], this molecule yielded an EC50 of 4.91 nM. The IC50 in test [6] worked out at 2.2 nM.

B3: AS15881_HCAb (Fc fusion)
heavy: QVQLVESGGGSVQAGGSLRLSCAASGFTDSSYCGAWFRQVPGKEREGVAIIDRYGGTMYKDSVKGRFTISKDTAKNILYLQMNSLKLEDTAMYYCAAAEYRGSSCDAESGYWGQGTQVTVSS[human IgG4 Fc with S228P (EU numbers) skipped]
Molecule B3 displayed a Kd with human PD-1-His antigen [2] of 3.3 nM. Besides, the EC50 in test [4] was 2.18 nM. The molecule also displayed an IC50 in test [6] of 1.66 nM.

B4: AS15892_HCAb (Fc fusion)
heavy: QIQLVESGGGSVQAGGSLRLSCAASGFTDSSYCGAWFRQVPGKEREGVAIIDRYGGTMYKDSVKGRFTISKDTAKNILYLQMNSLKLEDTAMYYCAAAEYRGSSCDAESGYWGQGTQVTVSS[human IgG4 Fc with S228P (EU numbers) skipped]
B4: binding in the test with human PD-1-His antigen [2] was put at a Kd of 4 nM.

B5: AS15883_HCAb (Fc fusion)
heavy: QVHLMESGGGSVQAGGSLTLSCAASVFTDSNYCMAWFRQVPGKEREGVAIIDRYGGTMYKDSVKGRFTISKDTAKNILYLQMNSLKLEDTAMYYCAAAGYRGSSCDADSGYWGQGTQVTVSS[human IgG4 Fc with S228P (EU numbers) skipped]
For the molecule B5, the Kd in the test with human PD-1-His antigen [2] was 3.9 nM.

B6: AS15193VH8M1_HCAb (Fc fusion)
heavy: EVQLVESGGGLVQPGGSLRLSCAVSGNIYNRNFMGWFRQAPGKGLEGVSAIYTGTSRTYYADSVKGRFTISRDNSKNTVYLQMNSLRAEDTAVYYCAADLREGFWDTGVWNTWGQGTLVTVSS[human IgG4 Fc with S228P (EU numbers) skipped]
Consider B6, for which the affinity with human PD-1-His antigen [1], expressed as Kd, was 20 nM. In addition, in test [3], the response was half-maximal at 1.92 nM (EC50). The IC50 in test [5] was determined as 1.96 nM.

B7: AS15193VH18M1_HCAb (Fc fusion)
heavy: EVQLVESGGGLVQPGGSLRLSCAVSGNIYNRNFMGWFRQAPGKGREGVSAIYTGTSRTYYADSVKGRFTISRDNAKNTVYLQMNSLRPEDTAVYYCAADLREGFWDTGVWNTWGQGTLVTVSS[human IgG4 Fc with S228P (EU numbers) skipped]
The molecule B7 displayed a Kd with human PD-1-His antigen [1] of 15 nM. In test [3], this molecule yielded an EC50 of 1.8 nM. For the same molecule, the IC50 in test [5] turned out to be 1.75 nM.

B8: AS15193VH8_HCAb (Fc fusion)
heavy: EVQLVESGGGLVQPGGSLRLSCAVSGNIYNRNFMGWFRQAPGKGLEGVSAIYTGTSRTYYADSVKGRFTISRDNSKNTVYLQMNSLRAEDTAVYYCAADLRDGFWDTGVWNTWGQGTLVTVSS[human IgG4 Fc with S228P (EU numbers) skipped]
On to B8, for which, in the test with human PD-1-His antigen [1], the Kd turned out to be 9.7 nM. In test [3], the EC50 was found to be 1.78 nM. This molecule registered an IC50 in test [5] of 1.64 nM.

B9: AS15193VH18_HCAb (Fc fusion)
heavy: EVQLVESGGGLVQPGGSLRLSCAVSGNIYNRNFMGWFRQAPGKGREGVSAIYTGTSRTYYADSVKGRFTISRDNAKNTVYLQMNSLRPEDTAVYYCAADLRDGFWDTGVWNTWGQGTLVTVSS[human IgG4 Fc with S228P (EU numbers) skipped]
In turn, B9 showed a Kd with human PD-1-His antigen [1] of 7 nM. This molecule also came in with an EC50 in test [3] of 1.61 nM. The molecule further came in with an IC50 in test [5] of 1.57 nM.

B10: AS15899_HCAb (Fc fusion)
heavy: QVQLVESGGGSVQAGGSLRLSCAASGYTAGSLCMGWFRQAPGKEREGVAAIYTGGGSTYYADSVKGRFTISQDNAKNTVYLQMNSLKPEDTAQYYCGAGSREDYCDRGYIYDHWGQGTQVTVSS[human IgG4 Fc with S228P (EU numbers) skipped]
In the test with human PD-1-His antigen [2], B10 displayed a Kd of 3.8 nM. In test [4], the EC50 worked out at 1.48 nM. This molecule also registered a 50% inhibitory concentration (IC50) in test [6] of 0.91 nM.

B11: AS15152_HCAb (Fc fusion)
heavy: QMQLVESGGGSVQAGGSLRLSCAVSGYIYNRNFMGWFRQAPGKEREGVAAIYTGGPYTYYTDSVQGRFTISQDNTKNTVYLQMNSLKPEDTAMYYCVSDLSDGTWDQGRWNYWGQGTQVTVSS[human IgG4 Fc with S228P (EU numbers) skipped]
In turn, B11 showed a Kd with human PD-1-His antigen [2] of 18.3 nM. This lies in the double-digit nanomolar range.

B12: AS06962_HCAb (Fc fusion)
heavy: QVHLVDSGGGLVQPGGSLRLSCAASGSITSRNTMGWYRQVPGKQRELVALIATFVTHYADSVKGRFTISRDNARKMVFLEMNSLQPEDTGAYYCYVDVSPYWGRGTQVTVSS[human IgG4 Fc with S228P (EU numbers) skipped]
In the test with human PD-1-His antigen [2], B12 showed a Kd of 39 nM.

B13: AS25170_HCAb (Fc fusion)
heavy: QVKLVESGGGLVQSGGSLRLSCAVSGSGYSYSRGCFAWFQQRPGKEREGVAIINMDGHTMYSDLAQGRFIISQDKAKNTLYLQMNSLKPDDTAMYYCAYDRDQCYVLRDRLRLPDTFNDWGQGTQVTVSS[human IgG4 Fc with S228P (EU numbers) skipped]
With B13, the Kd with human PD-1-His antigen [2] is 9.8 nM. Besides, in test [4], it took 7.2 nM to reach a half-maximal effect (EC50). This molecule yielded an IC50 in test [6] of 3.01 nM.

The Kd is the equilibrium constant for the complex coming apart. The low end stands for higher affinity, the high end for lower affinity. What is called EC50 is the concentration at which the effect is half-maximal. As usually defined, the IC50 is the concentration that gives 50% inhibition. Low values mean greater potency, high ones weaker potency.
